One assay has as its system HSkMC. The assay can be described thus: cytotoxicity call (relative viability < 0.9). The conditions noted are these: 10 µM.
For a further assay, the system named is HepG2. The experiment in a line: cytotoxicity call (relative viability < 0.9). The following applies: 10 µM.
The next assay has as its system S. aureus RN4220. The experiment in a line: growth inhibition call (relative growth <= 0.2). The conditions noted are these: 50 µM.

Some of the results follow.

As for `N=C(N)NCCS`, the cytotoxicity call with HSkMC and in the assay on HepG2 was “inactive” in each case. Moreover, the growth inhibition call with S. aureus RN4220 is “inactive”.

For `C[C@@H]1CN([C@H](C)CO)C(=O)c2c(c3ccccc3n2C)-c2ccccc2CO[C@H]1CN(C)S(=O)(=O)c1ccc(Cl)cc1`, the cytotoxicity call in the assay with HSkMC and with HepG2 was “inactive” in each case. In addition, the growth inhibition call in the assay with S. aureus RN4220 was “inactive”.

As to `Cc1noc(C)c1NC(=O)Nc1ccc2c(c1)C(=O)N([C@H](C)CO)C[C@H](C)[C@H](CN(C)CC1CC1)OCCCC[C@@H](C)O2`, the cytotoxicity call with HSkMC and in the assay with HepG2 was “inactive” each time. Moreover, in the assay on S. aureus RN4220, the growth inhibition call is “inactive”.

On to `COc1ccc(CN(C)C[C@@H]2OCCCC[C@H](C)Oc3ccc(NS(=O)(=O)c4ccc(Cl)cc4)cc3C(=O)N([C@H](C)CO)C[C@@H]2C)cc1`, for which the cytotoxicity call in the assay on HSkMC was “inactive”. Besides, the cytotoxicity call in the assay on HepG2 was “active”. Further, the growth inhibition call with S. aureus RN4220 is “inactive”.

For the molecule `O=C(O)Cc1nnc(-c2ccncc2)[nH]1`, the cytotoxicity call in the assay on HSkMC and in the assay on HepG2 was “inactive” in each case. For the same molecule, the growth inhibition call with S. aureus RN4220 is “inactive”.

Consider `Cc1noc(C)c1S(=O)(=O)Nc1ccc2c(c1)C(=O)N([C@@H](C)CO)C[C@@H](C)[C@H](CN(C)C(=O)Nc1ccc3c(c1)OCO3)O2`, for which the cytotoxicity call in the assay on HSkMC and in the assay on HepG2 was “inactive” each time. Further, the growth inhibition call with S. aureus RN4220 was “inactive”.

Regarding `C[C@@H]1CN([C@@H](C)CO)C(=O)c2cc(NS(C)(=O)=O)ccc2O[C@@H]1CN(C)S(=O)(=O)c1ccc(Cl)cc1`, the cytotoxicity call in the assay on HSkMC and in the assay with HepG2 was “inactive” each time. In the assay on S. aureus RN4220, the growth inhibition call is “inactive”.

For `C[C@@H]1CN([C@@H](C)CO)C(=O)c2cc(NS(C)(=O)=O)ccc2O[C@@H](C)CCCCO[C@H]1CN(C)Cc1ccncc1`, the cytotoxicity call in the assay on HSkMC and in the assay with HepG2 was “inactive” throughout. Further, the growth inhibition call in the assay with S. aureus RN4220 is “inactive”.

Regarding `O=C1OCc2cc(-n3cnnn3)ccc21`, the cytotoxicity call in the assay with HSkMC and in the assay with HepG2 was “inactive” throughout. In addition, the growth inhibition call in the assay on S. aureus RN4220 was “inactive”.

As to `CCCC(=O)Nc1ccc2c(c1)C(=O)N(C)C[C@H](OC)[C@H](C)CN(S(=O)(=O)c1cn(C)cn1)[C@@H](C)CO2`, the cytotoxicity call with HSkMC and in the assay on HepG2 was “inactive” each time. In addition, the growth inhibition call with S. aureus RN4220 was “inactive”.

Take `C[C@@H]1CN([C@H](C)CO)C(=O)c2cc(C#Cc3ccccn3)cnc2O[C@@H]1CN(C)C(=O)c1cnccn1`: the cytotoxicity call in the assay with HSkMC and in the assay with HepG2 was “inactive” throughout. Moreover, in the assay with S. aureus RN4220, the growth inhibition call is “inactive”.

For `O=c1[nH]c2ccccc2c(O)c1[I+]c1ccccc1`, the cytotoxicity call in the assay with HSkMC and in the assay with HepG2 was “inactive” each time. For the same molecule, in the assay with S. aureus RN4220, the growth inhibition call is “inactive”.

With `C[C@@H]1CCCCO[C@H](CN(C)S(=O)(=O)c2ccc(F)cc2)[C@@H](C)CN([C@H](C)CO)C(=O)c2cc(NS(C)(=O)=O)ccc2O1`, the cytotoxicity call with HSkMC and in the assay with HepG2 was “inactive” in each case. In addition, the growth inhibition call with S. aureus RN4220 is “inactive”.

`COc1cccc(S(=O)(=O)Nc2ccc3c(c2)[C@@H]2C[C@@H](CC(=O)NC4CCCCC4)O[C@@H](CO)[C@@H]2O3)c1`: the cytotoxicity call with HSkMC and in the assay with HepG2 was “inactive” each time. For the same molecule, in the assay on S. aureus RN4220, the growth inhibition call was “inactive”.

Consider `CS(=O)(=O)N1CCCCC1`, for which the cytotoxicity call in the assay with HSkMC and in the assay on HepG2 was “inactive” throughout. In addition, the growth inhibition call in the assay with S. aureus RN4220 was “inactive”.

As for `C[C@@H]1CN([C@H](C)CO)C(=O)c2cccc(N(C)C)c2O[C@@H]1CN(C)S(C)(=O)=O`, the cytotoxicity call in the assay with HSkMC and with HepG2 was “inactive” in each case. The growth inhibition call in the assay on S. aureus RN4220 is “inactive”.

Regarding `COc1ccc(NC(=O)Nc2ccc3c(c2)C(=O)N([C@@H](C)CO)C[C@@H](C)[C@@H](CN(C)Cc2ccc(C(=O)O)cc2)OCCCC[C@@H](C)O3)cc1`, the cytotoxicity call with HSkMC and in the assay on HepG2 was “inactive” in each case. Moreover, in the assay with S. aureus RN4220, the growth inhibition call is “inactive”.

For the molecule `COCC#Cc1ccc2c(c1)O[C@@H](CN(C)C(=O)c1ccccc1F)[C@H](C)CN([C@H](C)CO)S2(=O)=O`, the cytotoxicity call in the assay on HSkMC and with HepG2 was “inactive” throughout. In the assay on S. aureus RN4220, the growth inhibition call was “inactive”.

In the case of `CO[C@H]1CN(C)C(=O)c2cc(NC(=O)c3ccc(F)cc3)ccc2OC[C@@H](C)N(C(=O)CN(C)C)C[C@H]1C`, the cytotoxicity call in the assay with HSkMC and with HepG2 was “inactive” each time. In addition, the growth inhibition call in the assay with S. aureus RN4220 was “inactive”.

As for `Cc1noc(C)c1S(=O)(=O)Nc1ccc2c(c1)C(=O)N([C@@H](C)CO)C[C@H](C)[C@H](CN(C)Cc1ccc3c(c1)OCO3)O2`, the cytotoxicity call in the assay with HSkMC and with HepG2 was “inactive” in each case. Further, the growth inhibition call with S. aureus RN4220 is “inactive”.

`C[C@@H]1CN([C@H](C)CO)C(=O)c2c(c3ccccc3n2C)-c2ccccc2CO[C@@H]1CN(C)Cc1ccc(-c2ccccc2)cc1`: the cytotoxicity call with HSkMC and in the assay with HepG2 was “inactive” in each case. Further, the growth inhibition call in the assay with S. aureus RN4220 was “inactive”.

Turning to `O=C(O)c1nc(-c2cnccn2)no1`, the cytotoxicity call in the assay with HSkMC and with HepG2 was “inactive” in each case. Besides, in the assay with S. aureus RN4220, the growth inhibition call was “inactive”.

As for `Nn1c(=S)[nH]c2cc(C(=O)O)ccc2c1=O`, the cytotoxicity call with HSkMC and in the assay with HepG2 was “inactive” throughout. In addition, the growth inhibition call in the assay with S. aureus RN4220 is “inactive”.

As to `C[C@@H]1CCCCO[C@H](CN(C)Cc2ccncc2)[C@H](C)CN([C@H](C)CO)C(=O)c2cc(NC(=O)C3CCCCC3)ccc2O1`, the cytotoxicity call in the assay with HSkMC and with HepG2 was “inactive” each time. Further, the growth inhibition call in the assay on S. aureus RN4220 is “inactive”.

`C[C@H]1CN([C@@H](C)CO)C(=O)c2cccc(NC(=O)c3ccncc3)c2O[C@H]1CN(C)Cc1ccc(-c2ccccc2)cc1`: the cytotoxicity call in the assay on HSkMC (human skeletal muscle cells) and with HepG2 was “inactive” each time. The growth inhibition call in the assay on S. aureus RN4220 is “inactive”.

For `CN([C@@H](c1ccccc1)c1ccccn1)S(=O)(=O)c1cn(C)c(=O)n(C)c1=O`, the cytotoxicity call in the assay with HSkMC and in the assay with HepG2 was “inactive” each time. The growth inhibition call in the assay with S. aureus RN4220 is “inactive”.

Regarding `C[C@H]1CN([C@@H](C)CO)C(=O)c2cc(C#Cc3ccccn3)cnc2O[C@@H]1CN(C)C(=O)CCN1CCCCC1`, the cytotoxicity call with HSkMC and in the assay on HepG2 was “inactive” in each case. Besides, the growth inhibition call in the assay with S. aureus RN4220 was “inactive”.
